Results from the supplement of paper PMC12217912.
The list shows a part of the results. Sequences were assembled here from the parent chain. Inactive controls read about 0.05.

B1: TEV protease; numbered along this chain (parent)
chain: MGESLFKGPRDYNPISSSICHLTNESDGHTTSLYGIGFGPFIITNKHLFRRNNGTLVVQSLHGVFKVKDTTTLQQHLVDGRDMIIIRMPKDFPPFPQKLKFREPQREERICLVTTNFQTKSMSSMVSDTSCTFPSGDGIFWKHWIQTKDGQCGSPLVSTRDGFIVGIHSASNFTNTNNYFTSVPKNFMELLTNQEAQQWVSGWRLNADSVLWGGHKVFMVKPEEPFQPVKEATQL

Variants of: B1
Assay: raw area under fraction-flipped curve 0-4 h after induction (AUC4h, not background-subtracted), DNA-recorder readout of cleavage of the substrate (dimensionless); higher = more cleavage of the substrate by the protease variant
Settings: temperature: 34 °C; time window: 0-4 h after rhamnose induction
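Further: Bxb1 expression induced with 0.2% (w/v) L-rhamnose at OD600 near 0.5, cultures sampled hourly, flipped fraction per protease–substrate barcode pair counted by paired-end Illumina sequencing.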

Row | Variant | area with substrate ENLYFQQ | area with substrate ENLYFQS | area with substrate ENLYFQW | area with substrate ENLYFQY | area with substrate ENLYFQN | area with substrate ENLYFQM | area with substrate ENLYFQP | area with substrate ENLYFQR | area with substrate ENLYFQT
1 | I110E | 0.0477 | 0.0503 | 0.0555 | 0.0563 | – | – | – | – | –
2 | D128G | – | 0.146 | – | – | 0.108 | – | – | – | –
3 | L77K | – | 0.0688 | – | 0.0434 | – | 0.0595 | 0.0501 | 0.0596 | 0.0341
4 | Q197Y | – | 0.0941 | – | – | 0.076 | 0.0991 | 0.0405 | 0.053 | –
